# Read counts are not given, so values of variants with three or more changes are uncertain.
# B1: LINE1-full (parent)
# chain: UACGUAGGUGGUUUUCCCCUGAUAGUGCUAAGGGGGCCUGGAAGUUUGGACUGGGCAGAGCUCAACACAGCGUGGCAAAGUGGCUGUGGCUAGACUGCCUCUCUGGAUUCCUCGUCACUCAGCAGGGCAUCUCUGAGAGAAAUGCC
# Variants of: B1
# Assay: self-cleavage, relative activity (ratio to wild type); higher = more cleavage; in vitro, sequencing; the parent is a self-cleaving ribozyme
row,Variant,self-cleavage
1,U26C A64U U85A U115C A136U,0.09
2,U26A A67G A117U,0.54
3,U26G U29A U119C,2.3
4,U26C A57U C76G U115C U130C,0
5,U26A A77G A141G,1.84
6,U26A U96C C110U,0.11
7,U26C A77U A121G,1.5
8,U26C U39C U109C A138G,1.53
9,G25A A124U A140G,0.53
10,U26C C63G U104A,0.13
11,G25A U47C U115C,2.83
12,U26C A59G G82A,0.08
13,U26G C103U U112C A121U,1.26
14,U26C U46C G48U,1.79
15,C28G A31C C37U G88A,0.05
16,C28U G33A A67G A69G A121G A138G,0
17,U26A U45C G55C A69G,0
18,G25U U52G A59U,0.71
19,U26C A107U A124U A141G,1.99
20,A24U U39A U115A,1.52
21,U29A A30G U52A U87C A142G,0.56
22,G25U U115A A138G,1.31
23,A24U A57G C76U U96A,0.06
24,U26A G33U U52A,0.97

row,Variant,self-cleavage
1,U29A A64G A67G C76U A94G,0.06
2,U26C A117G U132C A141G,1.25
3,U26A G82A U102C G114A U134C,0.79
4,U26C U46C A136U A141G,1.02
5,A24U U102A A142G,0.87
6,C28U A50G A79G U85C,0
7,A24U A42U A77G G82A C103A U132C A142G,0
8,G27A A92G U102C A136U,0
9,C28A A69U A142G,0.08
10,G27A A64G A117G A141G,0.13
11,U26C U62C C90U,0.06
12,U26A U29G A42G U73C,0.84
13,C28G G80A A142U,1.43
14,U26G A43U U87A,0.15
15,G25C A69U U134A,0.11
16,U26C A59G U112C,0.26
17,U29A A57G A65G C66A A77G A138C,0.2
18,U26C A42U U62A,0.16
19,U29A U85C A141G,0.17
20,U26A A42G U52A A107U U119C,2.45
21,U26C A43G A141G,1.31
22,U26A A92G C118U,0.24
23,A24U A69G A121G,0.54
24,U26A A77U U104C,1.28

row,Variant,self-cleavage
1,U26C A31G A64G A107U,0.59
2,U26C U45C A136U,1.34
3,A24U C38U U115C,1.55
4,U26C A42G U73C A140G G144A,0
5,A24U A43U U47C U96A U112C A138G,0.22
6,U26A U102C A121G,0
7,G27A U47C C68U U87C A92G,0.05
8,U26C A31C G88A A129U A140G,0.17
9,U26A A42G U47C A124G A138U,0.71
10,U26A A77G U87C,0.16
11,U29A A59G A124G,0.14
12,U26C U52A A142G U143A,2.38
13,U29A U45G A140G,1.21
14,U26C U87A U104C,0.14
15,U26A U119C U143C C145A,1.27
16,U26A U96A U143C,0.11
17,U29C A30G A67U G122A,0.1
18,C28G A69U A79G,0.07
19,U26A U39C C66U A92G U115C A140G,0
20,U26A A59G U85C,0.04
21,U26C U81C A138G,0
22,A24U A59G A129G,0.14
23,G27A U52A U100C,1.85
24,U26C A77U U109A U132A A138G,0.5

row,Variant,self-cleavage
1,U26A C51A A117U A124C,1.51
2,G25U A64G U104C,0.2
3,U29A A31G U39A,0.51
4,U26A U46A U143C,1.25
5,U26C A67G U130A A138G,0.44
6,C28U U46A U119A,1.2
7,U26C U73A U85C U134A,0.12
8,U26C U47C A138G,1.6
9,C28A A43G A67U C68U A69G A142G,0.05
10,U26C U52C A65G A124G,0
11,G25A U62G U91A U96A A136U,0.05
12,U26A A79G U96C U102C U134C,0
13,U26C G74C U85C U143C,0.56
14,U26C A59G U62C U130C,0
15,A24G U108C G114A U132C,1.11
16,U26C A59U A65C A77G G114U,0.05
17,U26C A42G U132C,1.35
18,U26C U39C U62C U91C,1.15
19,G25A A69U A94G U115G C123U,0
20,U26A A117U A129U,0.68
21,U26A C71A U73A A79U,0.03
22,U26C U52C U112C,1.02
23,U26A U81G U108C A117G,2.04
24,C28A G54C U100C,0.07

row,Variant,self-cleavage
1,A24U U87C U134A A141G,0.07
2,U29A A77G U87C,0
3,U26C G32A A67G C99U U115C,0.32
4,A24U U39A A124G,1.73
5,U26C A94G A138U,0.5
6,G25C A64U A69G U85C,0
7,G25A U104A A107G U115C C123U,0.97
8,U26A U39A U85C,0.09
9,U26C U62C A142G,0
10,U26A U39C A94G G125A A140G,0.17
11,U26A G54A A94G A117C,0.12
12,U26C A79G U96C C133U,0.15
13,U26A A59G U108A,0.04
14,U29A U73A U104A A121U,2.45
15,G25A A69U A117U,0.03
16,U26G U39A U52C G80U U132C,0
17,G25A U104C A129C,1.18
18,A24U C95U A140U,0.23
19,A24U C116A A140G A142G,0.87
20,G27U U45G U115C,0.8
21,C28G A43G G44A A50U,0.84
22,C28U U62C U132A,0.06
23,G27A G82A C111A C146G,1.06
24,U26C A30U U62C U85C U87A,0

row,Variant,self-cleavage
1,G25U U134C A140G,1.81
2,U26C U96A U130C,0.14
3,C28A A42G U47C U143C,1.13
4,G27A U52A G72U,0.77
5,U26G U39C G55C,0.39
6,A24U G32A U47A U52C A138G,0.47
7,U26A G40A U47A A94G U130C,0.13
8,U26C C38A U134A,0.78
9,U26A U130G A141G,0.54
10,A24U U47C U87C,0
11,U26C U45C A79G G127C,1.15
12,U26C U29C U45A G53A U96C,0.25
13,U29A A30G A78U,1.32
14,U26A A129U A138G,1.04
15,C28U U62C A121G A138U,0.06
16,U26A U39A U132C A142G,1.24
17,U26A A42G U119A,1.1
18,A24U U47A U96C C120A,0
19,U26C U52C A64G C123U U132C,0.04
20,G27A G54U A67G C68U C71G A121G A124U,0.02
21,A24U A77G A107G,0.79
22,U26C A78G U109C U130C,1.15
23,U26C G49U A117G,0.52
24,U29A A50G A107G,0

row,Variant,self-cleavage
1,U26A U45C U115C A136G,2.53
2,U26C U52C A69G U115A,0
3,U26C C111U U132C,1.58
4,U26C C37U U52A U73A U102C A142G,1.73
5,U26G U29A U46C A65G U104C G127A U134C,0
6,C28G U112A A136U,1.51
7,U29A U119C A138G A141G,1.47
8,U26G A31G A140G,1.08
9,U29C A42G A50G,0
10,U26G U96C U108C C116A,0.39
11,G27A A31U A42G A64G A107G,0
12,U26A U39C U62A U100C,0.04
13,U26A U46C U104G,0.33
14,U26C U87A C90U,0.04
15,U26C A78G C145U,1.3
16,U26A C111U A142G,1.46
17,U26C G53A A94G,0.33
18,U26C A64G A69U A94G U100A A141G,0
19,G27A A43G G75A U130A,0.55
20,U26G G40A A59G G72A C111U U115C,0.05
21,U29C A30G U85A G89A U132C,0.04
22,U26C A67G A140U,0.15
23,U26A A69C G89A,0
